Laboratory results reported in article PMC11260468.
These are yes or no findings as the source states them, for the method shown. For some assays here: Binding seen in cells or lysates may run through a third protein. Some results given as binding are weak or reduced against the parent protein; the word gives no strength. For some assays here: Sequences can lack the tags named with a protein.

Chains of the proteins cited; added tags and fusions are not shown. Residues count along the entry.
UniProt P17745, residues 68-476: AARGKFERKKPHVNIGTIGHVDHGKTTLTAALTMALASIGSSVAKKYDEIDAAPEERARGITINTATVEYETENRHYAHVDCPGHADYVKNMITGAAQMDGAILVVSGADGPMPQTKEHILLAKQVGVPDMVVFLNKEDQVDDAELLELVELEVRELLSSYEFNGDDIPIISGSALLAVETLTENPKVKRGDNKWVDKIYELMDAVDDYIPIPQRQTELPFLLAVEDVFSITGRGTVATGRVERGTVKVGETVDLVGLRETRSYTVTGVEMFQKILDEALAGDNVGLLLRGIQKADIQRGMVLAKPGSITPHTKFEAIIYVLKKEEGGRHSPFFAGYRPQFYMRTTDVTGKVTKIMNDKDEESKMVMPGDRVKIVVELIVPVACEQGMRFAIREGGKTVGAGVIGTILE

Tests used:
[1] = molecular target: T1, uS10c-GFP fusion protein (uS10c:uS10c-GFP) (Arabidopsis) (UniProt Q9LK61); assay: co-IP; GFP-Trap agarose on native protein extracts of seven-day-old transgenic seedlings, 60 min at 4°C; 150 mM NaCl, 0.5% NP40 substitute; with or without RNase A (1 mg/ml, 20 min) before the beads; immunoblot
T1 sequence: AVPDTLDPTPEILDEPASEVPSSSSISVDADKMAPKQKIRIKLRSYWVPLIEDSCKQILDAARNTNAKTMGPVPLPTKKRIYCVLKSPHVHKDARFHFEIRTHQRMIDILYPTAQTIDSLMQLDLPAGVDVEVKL

[2] = molecular target: T2, BPG2^1-238 (two-hybrid fusion) (Arabidopsis) (UniProt Q8W4I6); assay: two-hybrid; co-transformation into Y2H Gold; spotted on QDO (SD/-Ade/-His/-Leu/-Trp) with X-alpha-Gal, 3-4 days at 30°C
T2 sequence: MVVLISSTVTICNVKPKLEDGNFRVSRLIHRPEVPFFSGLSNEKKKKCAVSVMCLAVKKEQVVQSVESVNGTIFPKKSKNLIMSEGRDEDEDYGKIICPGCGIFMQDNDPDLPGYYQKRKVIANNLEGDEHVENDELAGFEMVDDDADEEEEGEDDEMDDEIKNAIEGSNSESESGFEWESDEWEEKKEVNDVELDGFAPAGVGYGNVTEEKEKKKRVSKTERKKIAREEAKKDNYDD

[3] = molecular target: T3, BPG2^239-660 (two-hybrid fusion) (Arabidopsis) (UniProt Q8W4I6); assay: as above
T3 sequence: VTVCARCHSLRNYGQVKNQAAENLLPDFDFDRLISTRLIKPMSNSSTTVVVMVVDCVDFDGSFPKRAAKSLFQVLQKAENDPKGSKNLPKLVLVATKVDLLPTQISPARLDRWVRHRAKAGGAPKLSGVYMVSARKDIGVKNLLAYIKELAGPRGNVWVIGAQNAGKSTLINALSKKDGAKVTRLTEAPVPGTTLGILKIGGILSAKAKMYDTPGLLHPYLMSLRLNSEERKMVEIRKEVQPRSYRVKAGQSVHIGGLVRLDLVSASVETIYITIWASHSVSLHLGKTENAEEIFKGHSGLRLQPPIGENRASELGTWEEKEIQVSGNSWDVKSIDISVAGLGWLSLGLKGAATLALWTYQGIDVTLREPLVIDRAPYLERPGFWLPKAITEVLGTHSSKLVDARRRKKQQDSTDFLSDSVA

[4] = molecular target: T4, uS10c fused with the C-terminal segment of YFP (uS10c-cYFP) (Arabidopsis) (UniProt Q9LK61); assay: split reporter; BiFC (split YFP, pUC-SPYNE/pUC-SPYCE) in Arabidopsis protoplasts, confocal microscopy
T4 sequence: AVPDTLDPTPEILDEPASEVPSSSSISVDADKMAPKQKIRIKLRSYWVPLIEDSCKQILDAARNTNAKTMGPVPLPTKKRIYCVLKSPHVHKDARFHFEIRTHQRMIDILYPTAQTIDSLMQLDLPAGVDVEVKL

[5] = molecular target: T5, plastid ribosomal protein S9 (uS9c) fused with the C-terminal fragment of YFP (uS9c-cYFP) (Arabidopsis) (UniProt Q9XJ27); assay: as above
T5 sequence: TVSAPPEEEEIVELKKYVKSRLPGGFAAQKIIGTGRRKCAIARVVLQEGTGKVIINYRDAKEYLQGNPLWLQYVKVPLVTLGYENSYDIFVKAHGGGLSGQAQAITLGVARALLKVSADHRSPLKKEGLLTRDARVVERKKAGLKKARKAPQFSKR

[6] = molecular target: GFP fused with the plastid translation elongation factor EF-Tu (RAB8D-GFP) (Arabidopsis) (UniProt P17745); assay: co-IP; GFP-Trap agarose on native protein extracts of seven-day-old transgenic seedlings, 60 min at 4°C; 150 mM NaCl, 0.5% NP40 substitute; with or without RNase A (1 mg/ml, 20 min) before the beads; immunoblot

B1: plastid ribosomal protein S1 (bS1c), endogenous (protein, UniProt Q93VC7 45-416)
chain: AVAMSSGQTKERLELKKMFEDAYERCRTSPMEGVAFTVDDFAAAIEQYDFNSEIGTRVKGTVFKTDANGALVDISAKSSAYLSVEQACIHRIKHVEEAGIVPGMVEEFVIIGENESDDSLLLSLRNIQYELAWERCRQLQAEDVIVKAKVIGANKGGLVALVEGLRGFVPFSQISSKAAAEELLEKEIPLKFVEVDEEQTKLVLSNRKAVADSQAQLGIGSVVLGVVQSLKPYGAFIDIGGINGLLHVSQISHDRVSDIATVLQPGDTLKVMILSHDRDRGRVSLSTKKLEPTPGDMIRNPKLVFEKAEEMAQTFRQRIAQAEAMARADMLRFQPESGLTLSSDGILGPLGSELPDDGVDLTVDDIPSAVDI
[1]
  binding: binds

B2: plastid ribosomal protein S10 (uS10c), GAL4-AD fusion in pGADT7 (protein, UniProt Q9LK61 1-191)
chain: MAVSTVSSFLLPSFGIPSSSPSSTRLKVSLLPSSSTHGGLSSCVLTKPSVSLTKVFAVPDTLDPTPEILDEPASEVPSSSSISVDADKMAPKQKIRIKLRSYWVPLIEDSCKQILDAARNTNAKTMGPVPLPTKKRIYCVLKSPHVHKDARFHFEIRTHQRMIDILYPTAQTIDSLMQLDLPAGVDVEVKL
[2]
  binding: binds weakly
[3]
  binding: binds

B3: BPG2 fused with the N-terminal fragment of YFP (BPG2-nYFP) (protein, UniProt Q8W4I6 54-660)
chain: CLAVKKEQVVQSVESVNGTIFPKKSKNLIMSEGRDEDEDYGKIICPGCGIFMQDNDPDLPGYYQKRKVIANNLEGDEHVENDELAGFEMVDDDADEEEEGEDDEMDDEIKNAIEGSNSESESGFEWESDEWEEKKEVNDVELDGFAPAGVGYGNVTEEKEKKKRVSKTERKKIAREEAKKDNYDDVTVCARCHSLRNYGQVKNQAAENLLPDFDFDRLISTRLIKPMSNSSTTVVVMVVDCVDFDGSFPKRAAKSLFQVLQKAENDPKGSKNLPKLVLVATKVDLLPTQISPARLDRWVRHRAKAGGAPKLSGVYMVSARKDIGVKNLLAYIKELAGPRGNVWVIGAQNAGKSTLINALSKKDGAKVTRLTEAPVPGTTLGILKIGGILSAKAKMYDTPGLLHPYLMSLRLNSEERKMVEIRKEVQPRSYRVKAGQSVHIGGLVRLDLVSASVETIYITIWASHSVSLHLGKTENAEEIFKGHSGLRLQPPIGENRASELGTWEEKEIQVSGNSWDVKSIDISVAGLGWLSLGLKGAATLALWTYQGIDVTLREPLVIDRAPYLERPGFWLPKAITEVLGTHSSKLVDARRRKKQQDSTDFLSDSVA
[4]
  binding: binds
[5]
  binding: no binding

B4: uS10c-nYFP (protein, UniProt Q9LK61 57-191)
chain: AVPDTLDPTPEILDEPASEVPSSSSISVDADKMAPKQKIRIKLRSYWVPLIEDSCKQILDAARNTNAKTMGPVPLPTKKRIYCVLKSPHVHKDARFHFEIRTHQRMIDILYPTAQTIDSLMQLDLPAGVDVEVKL
[5]
  binding: binds

B5: BPG2, endogenous (protein, UniProt Q8W4I6 54-660)
chain: CLAVKKEQVVQSVESVNGTIFPKKSKNLIMSEGRDEDEDYGKIICPGCGIFMQDNDPDLPGYYQKRKVIANNLEGDEHVENDELAGFEMVDDDADEEEEGEDDEMDDEIKNAIEGSNSESESGFEWESDEWEEKKEVNDVELDGFAPAGVGYGNVTEEKEKKKRVSKTERKKIAREEAKKDNYDDVTVCARCHSLRNYGQVKNQAAENLLPDFDFDRLISTRLIKPMSNSSTTVVVMVVDCVDFDGSFPKRAAKSLFQVLQKAENDPKGSKNLPKLVLVATKVDLLPTQISPARLDRWVRHRAKAGGAPKLSGVYMVSARKDIGVKNLLAYIKELAGPRGNVWVIGAQNAGKSTLINALSKKDGAKVTRLTEAPVPGTTLGILKIGGILSAKAKMYDTPGLLHPYLMSLRLNSEERKMVEIRKEVQPRSYRVKAGQSVHIGGLVRLDLVSASVETIYITIWASHSVSLHLGKTENAEEIFKGHSGLRLQPPIGENRASELGTWEEKEIQVSGNSWDVKSIDISVAGLGWLSLGLKGAATLALWTYQGIDVTLREPLVIDRAPYLERPGFWLPKAITEVLGTHSSKLVDARRRKKQQDSTDFLSDSVA
[1]
  binding: binds
[6]
  binding: no binding
